Experimental data taken from PubChem BioAssay AID485294 (National Center for Advancing Translational Sciences (NCATS), 2010).
About 150 (0.041%) of roughly 370,000 compounds were called active. This list was built around the results that the source calls inconclusive (neither active nor inactive); the mix of calls is not that of the screen. Calls follow the shape of the dose curve; as a rule, active = well fitted inhibition curve with a large enough effect; inconclusive = small, poorly fitted or top-dose-only effect; inactive = flat fitted curve, though single readings scatter. No potency is given beside an inconclusive call; the fits are too rough.

Each compound was assayed against Beta-lactamase (Escherichia coli (strain K12)) (UniProt P00811) (assay: qHTS Inhibitors of AmpC Beta-Lactamase (assay with detergent)). Details: AmpC hydrolysis of nitrocefin, absorbance 480 nm, 0.01% Triton; series mostly up to 114 µM.
Method in brief: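 AmpC (5.3 nM in the dispensed reagent) in 20 mM phosphate pH 7.0 with 0.01% (detergent screen) or 0.0001% Triton X-100 was preincubated with compounds for 15 min at room temperature. Nitrocefin was then added from an 800 uM solution, and hydrolysis was followed at 480 nm.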
Also: nearly all actives have a fitted effect of over 25% in size.
Potency is read from the fitted curve at half-maximal effect; tags tell the direction and shape of the fitted curve.

Chain of UniProt P00811 (P00811 whole entry, looked up): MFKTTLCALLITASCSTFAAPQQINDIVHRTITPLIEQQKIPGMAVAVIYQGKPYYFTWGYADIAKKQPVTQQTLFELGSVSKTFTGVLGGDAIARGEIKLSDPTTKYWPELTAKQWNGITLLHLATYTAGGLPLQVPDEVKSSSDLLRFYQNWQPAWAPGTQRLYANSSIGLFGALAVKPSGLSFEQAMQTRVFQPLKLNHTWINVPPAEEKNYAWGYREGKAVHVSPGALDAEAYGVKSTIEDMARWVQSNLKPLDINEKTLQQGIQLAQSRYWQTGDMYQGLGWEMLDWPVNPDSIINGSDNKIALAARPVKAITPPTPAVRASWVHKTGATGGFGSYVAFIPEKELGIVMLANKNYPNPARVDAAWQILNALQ

Compound | Potency
CCOC(=O)C1CCN(C(=O)Nc2ccc(Cl)cc2)CC1 | inconclusive [inhibitor, full curve]
Cc1ccc(CNC(=O)c2sc3nc4c(c(C(F)(F)F)c3c2N)CCC4)cc1 | inconclusive [inhibitor, full curve, poor fit]
CCn1cc(CNCc2cn[nH]c2-c2cc3ccccc3o2)cn1 | inactive
CCn1c(C)c(C(C)=O)c(N2CCN(C(=O)c3ccco3)CC2)nc1=S | inconclusive [inhibitor, single point]
Cc1cccc(NC(=O)c2cnc3scc(C)n3c2=O)c1 | inconclusive [inhibitor, single point]
COc1ccccc1C(=O)COC(=O)c1cc(S(=O)(=O)N2CCCCC2)ccc1N1CCOCC1 | inconclusive [inhibitor, full curve, poor fit]
Cc1c(C(=O)C(=O)NCCCn2ccnc2)c2ccccc2n1C | inconclusive [inhibitor, full curve]
c1ccc2sc(SCc3ccc(-c4nnco4)cc3)nc2c1 | inconclusive [inhibitor, partial curve, poor fit]
COc1cc(/C=C(/C#N)c2ccc(F)cc2)ccc1OCc1ccc(C(=O)O)o1 | inconclusive [inhibitor, single point]
Cc1cccc(S(=O)(=O)N2CN(Cc3ccco3)c3nc4ccccc4nc32)c1 | inactive
O=C(N/C(=C\c1cccc([N+](=O)[O-])c1)C(=O)N1CCOCC1)c1ccco1 | inconclusive [inhibitor, partial curve]
CCc1noc(C)c1C(=O)OC(C)C(=O)Nc1ccc(Cl)cn1 (centres undefined) | inconclusive [inhibitor, partial curve, poor fit]
CCOc1ccc(-n2c(/C=C/c3cccc(F)c3)nc3cc(OC)c(OC)cc3c2=O)cc1 | inactive
CCOC(=O)N1CCN(C(=O)COc2ccc([N+](=O)[O-])cc2)CC1 | inconclusive [inhibitor, single point]
O=C(Cn1ncc2c(=O)oc3ccccc3c21)NCCc1ccsc1 | inconclusive [inhibitor, full curve, poor fit]
COC(=O)CN(Cc1ccco1)S(=O)(=O)c1ccccc1 | inactive
Cc1ccc(CNC(=O)CCn2cc(-c3ccc(C)cc3)nc2CCN)cc1 | inconclusive [inhibitor, single point]
Cc1[nH]nc2c1C(c1ccoc1)C(C#N)=C(N)O2 (centres undefined) | inconclusive [inhibitor, full curve, poor fit]
Brc1cc2c(cc1-c1nc3ccccc3s1)OCO2 | inactive
CC1(C)CN2C(=O)c3ccccc3C2(C)S1 (centres undefined) | inconclusive [inhibitor, full curve]
O=C(Nc1ccccc1)Nc1cccc(Cl)c1Cl | inactive
CCOC(=O)c1ccccc1NC(=O)COc1coc(CN2CCc3ccccc32)cc1=O | inconclusive [inhibitor, single point]

Compound | Potency
CCCOc1cccc(C(=O)Nc2cccc(-c3nc4ncccc4o3)c2C)c1 | inactive
Cc1cc(N2CCC(C(=O)Nc3ccc(F)cc3)CC2)nc(-c2ccccc2)n1 | inactive
CC1CCCCC12NC(=O)N(CC(=O)Nc1ccc3[nH]c(=O)[nH]c3c1)C2=O (centres undefined) | inconclusive [inhibitor, full curve, poor fit]
Cc1nnc(N2CCC(C(=O)N3CCCCCC3)CC2)c2nn(-c3ccc(Cl)cc3)c(C)c12 | inactive
O=C(Nc1ccc(Br)cc1)C1CC(c2c(F)cccc2Cl)=NO1 (centres undefined) | inconclusive [inhibitor, partial curve, poor fit]
O=C(c1ccccc1)N1CC(COc2ccccc2)OC(c2cccnc2)O1 (centres undefined) | inconclusive [inhibitor, full curve, poor fit]
Cc1cc(C)nc(SCC(=O)Nc2ncc(C(F)(F)F)cc2Cl)n1 | inconclusive [inhibitor, partial curve, poor fit]
O=C(NC1(O)C(=O)c2ccccc2C1=O)c1c(Cl)cccc1Cl | inactive
Cc1cccc(C(=O)NNC(=O)C23CC4CC(CC(C4)C2)C3)c1O | inconclusive [inhibitor, partial curve, poor fit]
COCCNC(=O)CCn1c(=O)c2cc(OC)c(OC)cc2n(CC(=O)Nc2ccc(Cl)cc2F)c1=O | inactive
Cc1cc(C)c(NC(=O)COC(=O)c2cccc3c2C(=O)c2ccccc2C3=O)c(C)c1 | inconclusive [inhibitor, full curve, poor fit]
C(=N\N1CCOCC1)/c1cccs1 | inconclusive [inhibitor, full curve]
CC1CN(CCCCOc2ccc3ccccc3c2)CC(C)O1 (centres undefined) | inactive
COCCNc1oc(/C=C/c2ccccc2OC)nc1S(=O)(=O)c1ccccc1 | inactive
CC1CCCN(C(=O)COC(=O)c2n[nH]c3ccccc23)C1 (centres undefined) | inconclusive [inhibitor, full curve, poor fit]
N#CC1(NC(=O)CN2C(=O)c3ccc([N+](=O)[O-])cc3C2=O)CCCCC1 | inconclusive [inhibitor, full curve, poor fit]
CCOC(=O)C1(N(CC)CC)Sc2cc(C)ccc2NC1=O (centres undefined) | inconclusive [inhibitor, full curve, poor fit]
Cc1ccc(-c2c3c(nc4sc(C(N)=O)c(N)c24)CCC3)cc1 | inconclusive [inhibitor, full curve, poor fit]
O=C(NCCN1CCN(Cc2ccccc2)CC1)c1ccc(CS(=O)(=O)c2ccc(Br)cc2)o1 | inactive
Cc1ccc(OCC(=O)Nc2cccc(-c3nc4ccccc4s3)c2)cc1 | inactive
Cc1ccc(S(=O)(=O)N2CCC(C(=O)OCC(=O)N3CCCCC3C)CC2)cc1C (centres undefined) | inconclusive [inhibitor, full curve, poor fit]
COc1cccc(CNC(=O)C2CCN(S(=O)(=O)c3ccc4c(c3)CC(C)N4C(=O)C3CC3)CC2)c1 (centres undefined) | inconclusive [inhibitor, single point]
